Results from publication PMC4336329 (PLoS ONE, 2015).
The campaign covered roughly 310,000 compounds. About 2,200 (0.71%) showed an effect of 50% or more. The effect is printed as a negative number. Some of the results follow.

target: human ether-à-go-go-related gene (hERG) potassium channel (human, UniProt Q12809); assay: primary screen, population patch clamp on CHO cells stably expressing hERG
Sequence (Q12809 whole entry, looked up): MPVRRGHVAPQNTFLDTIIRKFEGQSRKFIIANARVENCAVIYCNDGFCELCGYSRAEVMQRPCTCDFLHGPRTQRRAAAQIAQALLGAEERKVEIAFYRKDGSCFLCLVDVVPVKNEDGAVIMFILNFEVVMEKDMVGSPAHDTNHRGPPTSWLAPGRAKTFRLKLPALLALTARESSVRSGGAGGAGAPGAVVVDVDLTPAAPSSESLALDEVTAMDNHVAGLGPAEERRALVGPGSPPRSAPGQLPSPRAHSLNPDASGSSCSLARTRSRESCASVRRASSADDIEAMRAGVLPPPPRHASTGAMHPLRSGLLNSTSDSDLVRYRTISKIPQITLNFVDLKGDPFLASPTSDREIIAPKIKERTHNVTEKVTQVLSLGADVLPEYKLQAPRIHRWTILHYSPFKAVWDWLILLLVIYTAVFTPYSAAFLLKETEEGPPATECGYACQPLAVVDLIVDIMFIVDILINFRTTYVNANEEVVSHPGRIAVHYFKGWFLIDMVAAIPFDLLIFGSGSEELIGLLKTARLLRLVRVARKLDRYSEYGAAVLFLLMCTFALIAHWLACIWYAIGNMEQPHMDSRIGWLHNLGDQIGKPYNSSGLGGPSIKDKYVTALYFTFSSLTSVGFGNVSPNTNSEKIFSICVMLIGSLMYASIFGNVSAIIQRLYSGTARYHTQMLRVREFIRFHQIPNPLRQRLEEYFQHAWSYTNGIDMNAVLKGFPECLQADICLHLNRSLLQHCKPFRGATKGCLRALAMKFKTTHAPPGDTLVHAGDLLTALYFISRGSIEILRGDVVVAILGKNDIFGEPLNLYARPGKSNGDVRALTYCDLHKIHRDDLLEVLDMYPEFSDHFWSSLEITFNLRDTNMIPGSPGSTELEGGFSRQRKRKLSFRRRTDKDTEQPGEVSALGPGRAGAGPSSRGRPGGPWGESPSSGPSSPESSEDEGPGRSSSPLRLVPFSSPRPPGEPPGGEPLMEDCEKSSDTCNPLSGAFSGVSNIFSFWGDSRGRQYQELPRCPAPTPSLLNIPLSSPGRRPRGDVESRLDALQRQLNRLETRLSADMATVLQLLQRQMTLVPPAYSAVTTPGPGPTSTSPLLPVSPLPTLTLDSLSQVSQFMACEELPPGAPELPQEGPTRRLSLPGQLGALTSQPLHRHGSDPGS

Row | Compound | hERG current change (%, negative = inhibition) at 1uM
1 | Cl.O=C(CN1CCCCCC1)Nc1cccc2c1OCO2 | 5.71%
2 | Cc1nc(-c2ccc(S(=O)(=O)Nc3ccc(S(N)(=O)=O)cc3)cc2)co1 | 20.3%
3 | O=C(O)[C@H](CSCc1ccccc1)NS(=O)(=O)c1ccc(F)cc1 | 9.02%
4 | COCc1cc(C)n(CC(=O)NCC2CCCO2)c(=O)c1C#N (centres unmarked) | 13.8%
5 | O=C1COc2ccc(-c3csc(NCC4CCCO4)n3)cc2N1 (centres unmarked) | 9.02%
6 | COC(=O)c1ccccc1NC(=O)NC1CCC(C)CC1 (centres unmarked) | 5.25%
7 | COc1cccc(N2CCN(C(=O)c3c(C)nn(-c4ccccc4)c3C)CC2)c1 | 2.38%
8 | COc1ccc(NC(=O)C(=O)c2cn(CC(=O)N3CCCC3)c3ccccc23)cc1 | 10.4%
9 | Cc1cccc(CC(=O)Nc2cc(=O)n(C)c(=O)n2C)c1 | 10.8%
10 | CCN(CC(=O)Nc1ccc(NC(C)=O)cc1)C(=O)c1ccc(COc2ccccc2)o1 | 15.8%
11 | CC1(c2ccc3ccccc3c2)NC(=O)N(CC(=O)Nc2ncccc2O)C1=O (centres unmarked) | 14.4%
12 | CN(c1ccccc1C(=O)Nc1cccc(Br)c1)S(=O)(=O)c1ccccc1 | 9.32%
13 | O=C(COC(=O)C1CCCCC1)Nc1ccc([N+](=O)[O-])cc1 | 2.62%
14 | Fc1cc(F)cc(NC(=S)NCCCN2CCOCC2)c1 | -0.0818%
15 | Cc1ccsc1C(=O)Nc1ccc2c(c1)OCCO2 | 15.9%
16 | Cc1cccc2cc(C(c3nnnn3CC3CCCO3)N3CCCc4ccccc43)c(=O)[nH]c12 (centres unmarked) | -1.09%
17 | C#CCOCCOCCOCCNc1nc(N2CCN(C(=O)[C@H](CCC(=O)O)n3cc(C(N)CC(C)C)nn3)CC2)nc(N2CCN(C(=O)[C@H](Cc3cc4ccccc4[nH]3)n3cc(C(N)[C@H](C)CC)nn3)CC2)n1.Cl (some centres unmarked) | 12.9%
18 | Cl.O=C1CSC2(CN3CCC2CC3)N1 (centres unmarked) | 16.4%
19 | O=C(CN1CCC(NC(=O)Nc2ccc(F)cc2)CC1)Nc1ccccc1[N+](=O)[O-] | 3.34%
20 | CCN(C(=O)CSc1nnc(-c2cccs2)o1)C1CCS(=O)(=O)C1 (centres unmarked) | 8.34%
21 | CCN1C(=O)CC(N2CCN(c3cccc(OC)c3)CC2)C1=O (centres unmarked) | 10.4%
22 | CN1C(=O)[C@H]2[C@@H](/C=C/c3ccccc3)N3C(=O)CN(CCO)C(=O)[C@@]3(C)[C@H]2C1=O | 7.69%

Row | Compound | hERG current change (%, negative = inhibition) at 1uM
23 | C/C(=N/NC(=O)c1ccncc1)c1ccc(NC(=O)c2ccccc2)cc1 | 15.6%
24 | CCCCCC(=O)NNC(=O)Cc1ccc([N+](=O)[O-])cc1 | 9.19%
25 | C=CCNC1=C(Cl)C(=O)N(c2cccc(Cl)c2Cl)C1=O | 5.38%
26 | CCC(C(=O)NC1CCCC1)N(Cc1ccco1)C(=O)CNS(=O)(=O)c1ccccc1 (centres unmarked) | 19.4%
27 | CC(C)(C)c1ccc(NC(=O)COC(=O)CCN2C(=O)c3cccc([N+](=O)[O-])c3C2=O)cc1 | 9.83%
28 | CCCN(Cc1ccc(N(C)C)cc1)CC1CC1 | 6.19%
29 | CN1CCN(C(=O)C2CCCN(S(=O)(=O)c3ccc(Br)cc3)C2)CC1 (centres unmarked) | 1.58%
30 | Cc1nc2ccccc2c2oc(C(=O)N3CCN(C(=O)c4ccco4)CC3)cc12 | -23.2%
31 | CCc1ccc(C(=O)CN(C#N)c2nc(C)cc(C)n2)cc1 | -25.5%
32 | CCCCc1nnc(NC(=O)CSCc2cc(=O)n3c(C)csc3n2)s1 | 12.2%
33 | CCC1(C)Cc2ccccc2-c2nc(NCCCO)[nH]c(=O)c21 (centres unmarked) | 1.5%
34 | COc1cccc(C(=O)Nc2cccc(SC)c2)c1 | 9.78%
35 | CCC(=O)Nc1cccc(C(=O)/C=C/c2cc(Br)ccc2OC)c1 | -7.46%
36 | COc1ccc2[nH]cc(C=O)c2c1 | 17.9%
37 | CCO[C@@H]1OC(C(=O)N2CCCCCCC2)=C[C@H](c2csc3ccccc23)[C@H]1CCCO | 7.83%
38 | O=C(COC(=O)C1CCN(S(=O)(=O)c2ccc3c(c2)OCCO3)CC1)Nc1ccc(C(F)(F)F)cc1 | 4.37%
39 | CN(C)C(=O)Oc1cccc(NC(=O)N2CCOCC2)c1 | 10.7%
40 | S=C(Nc1ccc2nsnc2c1)NC1CCCCC1 | 15.1%
41 | COC(=O)CCCC1=CC2=C(c3ccccc3)C(=O)C(C)(OC(=O)C3CCCC3)C(=O)C2=CN1C1CCCC1 (centres unmarked) | 0.826%
42 | CCN(CC)c1ccc(CN2CCC(C(=O)NCc3ccc(C)cc3)CC2)cc1.O=C(O)C(=O)O | -13.2%
43 | CCCCCOc1ccc(Cl)cc1CN1CCOCC1.Cl | 0.645%
44 | CNC(=S)N(C)[C@H]1c2c(ccc3ccccc23)OC[C@H]1CO | 19.2%

Row | Compound | hERG current change (%, negative = inhibition) at 1uM
45 | COc1cccc(C(=O)NC(C)c2ccc(Br)cc2)c1 (centres unmarked) | 9.01%
46 | Cc1cc(Nc2ccc(F)cc2C)n2ncnc2n1 | 0.461%
47 | COc1ccc(S(=O)(=O)N2CCN(c3ccc4nnc(-c5ccc(F)cc5)n4n3)CC2)cc1 | 7.12%
48 | Cc1ccccc1CSc1ncnc2ccccc12 | -1.03%
49 | Cc1nc(CC(=O)N/N=C/c2ccc(OCC(=O)O)cc2)cs1 | 7.44%
50 | CCc1nn(CC(=O)NC(C)CCc2ccccc2)c(=O)c2cc3cc(F)ccc3n12 (centres unmarked) | 15.1%
51 | COc1cccc(OCC(O)CN2CCN(c3ccc(Cl)cc3)CC2)c1 (centres unmarked) | -14.1%
52 | COc1ccc(N2C(=O)CCC(C(=O)O)C2c2ccc(OC)c(OC)c2)cc1 (centres unmarked) | 4.97%
53 | CC(=O)c1cc(CN2CCN(CCc3ccccc3)C(CCO)C2)cs1 (centres unmarked) | -10.2%
54 | COc1ccc(CCNC(=O)CSc2nc(=O)n3cccc(C)c3n2)cc1OC | 10.3%
55 | COc1ccc(/C=N/Nc2nonc2N)cc1 | -3.01%
56 | Cc1ccc(/C=C2/NC(=O)N(Cc3ccccc3)C2=O)o1 | 2.52%
57 | O=C(O)c1ccccc1NSc1ccccc1[N+](=O)[O-] | 13%
58 | C=CCn1c(SCC(=O)NC2CCS(=O)(=O)C2)nc2scc(C3CC3)c2c1=O (centres unmarked) | -3.99%
59 | Cc1ccc(CNC(=O)CCC(=O)N2CC(C)Sc3ccccc32)cc1 (centres unmarked) | 6.63%
60 | CCC(C)Sc1cccc(-c2nc3ccc(C)cn3c2NCc2ccccc2)c1.O=C(O)C(F)(F)F (centres unmarked) | 11.9%
61 | Cc1ccc(C(=O)N2CC(=O)Nc3ccccc32)o1 | 13.8%
62 | CCOC(=O)c1ccc(NC(=O)COC(=O)c2cccc(Oc3ccccc3)c2)cc1 | 4.22%
63 | O=C(O)C12C[C@H]3C[C@@H](C1)CC(n1ncc(N4CCN(c5ccccc5)CC4)c(Cl)c1=O)(C3)C2 | 8.57%
64 | COc1ccc2[nH]c(C(=O)N3CCC(CO)(Cc4cccc(C(F)(F)F)c4)CC3)c(C)c2c1 | 13.3%
65 | Cc1cc(NC(=O)c2ccc(C)s2)n(-c2ccccc2)n1 | 6.76%
66 | O=C(NC(Cc1c[nH]c2ccccc12)C(=O)O)c1ccc(F)cc1 (centres unmarked) | 11.3%

Row | Compound | hERG current change (%, negative = inhibition) at 1uM
67 | Cc1ccc(Cl)cc1NC(=O)Cn1cc(C(F)(F)F)cc(Cl)c1=O | -3.49%
68 | CCOc1ccccc1Cn1c(=O)oc2ccc(C)cc21 | 11.7%
69 | CC1CCCC(NC(=O)CCS(=O)(=O)c2ccc3c(c2)NC(=O)CS3)C1C (centres unmarked) | -6.33%
70 | O=C(NCCOc1ccccc1F)C1CC(=O)N(c2ccc3c(c2)OCCO3)C1 (centres unmarked) | 6.39%
71 | Cc1nc(N[C@@H](Cc2c[nH]c3ccccc23)C(=O)O)c2oc3ccccc3c2n1 | 11.4%
72 | COc1cccc(CNC(=O)c2nnn(CC(=O)Nc3cc(C)ccc3C)c2N)c1 | 16.2%
73 | COC(=O)[C@@H]1CCCN1Cc1nc(Cc2ccccc2F)no1 | 9.32%
74 | Cc1ccc(N(C)S(=O)(=O)c2cccc(C(=O)Nc3ccc(C)cn3)c2)cc1 | 15.7%
75 | CC(OC(=O)CCN1C(=O)C2CC=CCC2C1=O)C(=O)c1ccc(F)cc1 (centres unmarked) | 5.02%
76 | COc1ccc(CCNC(=S)NC(=O)/C=C/c2ccc(C)cc2)cc1OC | 8.14%
77 | CCOC(=O)N1CCN(c2cc(=O)n(-c3ccc(C)cc3)c(=O)[nH]2)CC1 | -8.88%
78 | Cc1ccc(C(=O)Nc2scc(-c3ccccc3)c2C(=O)O)cc1 | 5.69%
79 | O=C(Nc1cc(=O)c2ccccc2o1)N1CCOCC1 | 2.21%
80 | CC(C)OC(=O)c1c(N)n(CC2CCCO2)c2nc3ccccc3nc12 (centres unmarked) | -0.289%
81 | Cc1ccc(OCCC(=O)OCC(=O)Nc2ccc3c(c2)OCO3)cc1 | 12.2%
82 | O=c1c(-c2ccccc2)c(O)c2cccc3c2n1CCC3 | -2.8%
83 | CS(=O)(=O)N(CC(=O)N1CCOCC1)c1cccc(Cl)c1Cl | 7.49%
84 | O=C(Nc1cccc(Cl)c1)N1CCN(C/C=C/c2ccccc2)CC1 | -24.1%
85 | CCOC(=O)c1c(C)n(CCN2CCN(C)CC2)c2ccc(OC)cc12.Cl | 3.01%
86 | O=C(NCC(=O)N(c1cccnc1)C(C(=O)NC1CCCC1)c1ccc(F)cc1)c1ccco1 (centres unmarked) | 20%
